Test system: MDCKII-cells transfected with the human P-gp-transporter (hMDR1)
Conditions: for Permeability (Papp) Papp,AtoB: apical-to-basolateral; for Permeability classification Papp,AtoB: from Papp,AtoB; for Human P-gp substrate classification: from efflux ratio
[1] = 0.5 μM, 60 min, 1% BSA in HBSS pH 7.4, mean ± SD N=3

| SMILES | Permeability (Papp) Papp,AtoB [1] | Permeability classification Papp,AtoB | Human P-gp substrate classification | ER with an inhibitor present (inhibitor present) | Permeability (Papp) Papp,BtoA (basolateral-to-apical, 0.5 μM, 60 min, 1% BSA in HBSS pH 7.4, mean ± SD N=3) | Efflux ratio (conventional bidirectional transport, MDCKII-MDR1, no inhibitor) |
| --- | --- | --- | --- | --- | --- | --- |
| Clc1ccc2c(c1)N=C(N1CCNCC1)c1ccccc1N2 [N-desmethylclozapine] | 2.1 ± 0.5 10^–6 cm/s | Moderate (moderate > 1 Papp < 10) | Likely (likely P-gp substrates: ER > 2) | 0.8 |  |  |
| COc1ccc2c(c1)c(CC(=O)O)c(C)n2C(=O)c1ccc(Cl)cc1 [Indomethacin, indomethacin] | 3.7 ± 0.5 10^–6 cm/s | Moderate (moderate > 1 Papp < 10) | Unlikely (unlikely substrates: ER < 1.5) |  |  |  |
| CC(C)NCC(O)COc1cccc2ccccc12 (centres unmarked) [Propranolol, propranolol] | 4.5 ± 0.4 10^–6 cm/s | Moderate (moderate > 1 Papp < 10) | Unlikely (unlikely substrates: ER < 1.5) |  |  |  |
| CN/C(=N/CCSCc1nc[nH]c1C)NC#N [Cimetidine, cimetidine] | < LLOQ |  |  |  |  |  |
| O=C1CC2(CCCC2)CC(=O)N1CCCCN1CCN(c2ncccn2)CC1 [Buspirone, buspirone] | 21 ± 2 10^–6 cm/s | High (high: Papp > 10) |  |  |  |  |
| O=C(c1ccc(F)cc1)C1CCN(CCn2c(=S)[nH]c3ccccc3c2=O)CC1 [Altanserin] | 3.0 ± 0.6 10^–6 cm/s | Moderate (moderate > 1 Papp < 10) | Unlikely (unlikely substrates: ER < 1.5) |  |  |  |
| COc1ccccc1N1CCN(CCN(C(=O)C2CCCCC2)c2ccccn2)CC1 [Way-100635] | 13 ± 1 10^–6 cm/s | High (high: Papp > 10) | Unlikely (unlikely substrates: ER < 1.5) |  | 17 ± 3 10^–6 cm/s | 1.3 |
| NCC1(CC(=O)O)CCCCC1 [Gabapentin, gabapentin] | 2.9 ± 0.7 10^–6 cm/s | Moderate (moderate > 1 Papp < 10) | Unlikely (unlikely substrates: ER < 1.5) |  |  |  |
| CN(C)CCC=C1c2ccccc2COc2ccccc21 [Doxepin, doxepin] |  | Moderate (moderate > 1 Papp < 10) | Unlikely (unlikely substrates: ER < 1.5) |  |  |  |
| CN(C)CCCC1(c2ccc(F)cc2)OCc2cc(C#N)ccc21 (centres unmarked) [Citalopram, citalopram] | 4.7 ± 0.4 10^–6 cm/s | Moderate (moderate > 1 Papp < 10) | Possible (possible substrates: ER > 1.5) |  |  |  |

From article PMC10809502, “Application of a new MDCKII-MDR1 cell model to measure the extent of drug distribution in vitro at equilibrium for prediction of in vivo unbound brain-to-plasma drug distribution” (Fluids and Barriers of the CNS, 2024)
